Drawing on the supplement of paper PMC10126150, this text covers switch fluorescence ratio for 120 sequences.

Values marked as one replicate rest on one cluster of the flow cell; about a third of the high ones do not repeat.
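Further: ATP exposure 15 min at 22 °C before imaging.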

The data set deals with ATP. Kind of data set: switch fluorescence ratio, 500 uM ATP over buffer (Cy3 cluster intensity, sum of 5 cycles each) (fold (ratio)); higher = stronger signal-on switching upon ATP binding; sequences stand for … in TCGTCGGCAGCGTCAGATGTGTATAAGAGACAGTTTTTTTTTTTTTTTTTTTTTTTTT…TC. Particulars: aptamer strand: ATP DNA aptamer (quencher-CACCTGGGGGAGTATTGCGGAGGAAGG + anchor), 100 nM annealed; ATP concentration: 500 uM; one replicate. The gist of the method: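 Imaging in selection buffer was followed by imaging after 15 min with 500 uM ATP at 22 °C, for Cy3-labelled switching-strand clusters annealed to 100 nM quencher-labelled ATP aptamer on a modified Illumina MiSeq flow-cell. Five of these buffer/ATP cycles ran, separated by NaOH stripping and re-annealing. The fluorescence ratio per cluster is summed target-cycle over summed buffer-cycle Cy3 intensity, averaged per switch-domain sequence; clusters outside 100-1000 RFU were removed.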
Turning to GAGTAATTTC, the switch fluorescence ratio was 1.06. With GATCTGGAGA, the switch fluorescence ratio worked out at 1.1. For ACATATAAGA the value was 1.08; for TCGATACTTA, 1.01.

GTGAATATGT: the switch fluorescence ratio amounted to 0.957. As to CGCTAGCCAC, the switch fluorescence ratio was determined as 1.29. Under TGCCAGTTAC stands 1.09; under AACGGCCTTG, 0.989. Under GTAACAGGGG stands 1.14; under TGGGCCACT, 0.973. As to GAAGTTGCTT, the switch fluorescence ratio was 0.982.

In the case of TTAGTCTCCG, the switch fluorescence ratio worked out at 1.02. With GGGTAAGACG, the switch fluorescence ratio came to 1.01. Consider CTTGTAGGAC, for which the switch fluorescence ratio was 0.996. Take TGATTAACAT: the switch fluorescence ratio worked out at 0.958. Turning to CATCATTTGG, the switch fluorescence ratio amounted to 0.956.

As to CTTACCAGTC, the switch fluorescence ratio came out at 1.05.

Turning to ACTATATTCT, the switch fluorescence ratio is 1.02. For TCCTTACATC, the switch fluorescence ratio stood at 1. Under AGCCAAGCGA stands 1.02. With GGTCGTCTGG, the switch fluorescence ratio was determined as 0.969. For CATCATGGAA the value was 1.05. For TCTGGATAGC the value was 1.09; for ATCCTTCTGC, 0.999; for ATTTCTTTGG, 1.05. For GCTCAGAGTT the value was 1.03.

With CACCAACACG, the switch fluorescence ratio was determined as 1.31. In the case of GGGTGGGTTC, the switch fluorescence ratio was determined as 0.97. For AAACAATTTG the value was 0.969; for AAAAAATCTT, 1; for GACGCTGCCG, 1.06. Under GCACTCAGAG stands 1.02; under CGTATGTTTA, 0.992. Under GCGGAGAACA stands 0.997; under TTAGCAATTT, 1.34. For the sequence TTAGACCTTG, the switch fluorescence ratio worked out at 0.97. Under GCATGTGTTG stands 0.999; under TGAGTGTTCC, 1.01; under GTAGAGGGTT, 0.98. On to TTGGACGTCT, for which the switch fluorescence ratio is 0.947. Under CGTATTTAGG stands 1.02; under GAAACCGCAA, 3.68. For the sequence GGGATGTAC, the switch fluorescence ratio came to 0.995.

Regarding TGGTAAGGGT, the switch fluorescence ratio amounted to 1.02. Under GATGCGTAGA stands 1.02; under AAGTTCGGTA, 0.986; under ATCACGTTCG, 1.04.

Consider TAACCCTCGG, for which the switch fluorescence ratio is 1.01.

As for AAGCGCGCCA, the switch fluorescence ratio came to 1.03. For ACCAGATTCT, the switch fluorescence ratio turned out to be 1. Under TCGGATAAGC stands 1.03; under GACCTCATC, 1.01; under GTGGCCTGTA, 0.974. Turning to TCCATGTTAC, the switch fluorescence ratio turned out to be 1.19.

Take GTTCACGATT: the switch fluorescence ratio amounted to 0.971. For AGATGAAGGA the value was 0.989; for AAAATGGCTG, 1.04. TGCGGCGTAC: the switch fluorescence ratio was 1.11. Take TGCATGAATA: the switch fluorescence ratio is 0.954. GTATTACGAG: the switch fluorescence ratio came to 1.02. TAAACTTAGG: the switch fluorescence ratio turned out to be 0.991. Under GGCAGAGAGT stands 0.978; under TATCACGCG, 0.987; under GGTAGCTCAC, 1.08. In the case of TCAAGACGGG, the switch fluorescence ratio turned out to be 1.32. Under AGCAGCCTCG stands 1.04. On to AGTCGGTTTC, for which the switch fluorescence ratio was 0.941. AGGTTTATCT: the switch fluorescence ratio is 1.03. ATTGGGATTG: the switch fluorescence ratio worked out at 1.01. For ATTTTCGT the value was 0.95; for AGGCCGCGTA, 1.02. Under TATTCCGTCA stands 1.05.

Turning to CTGGTCCGAG, the switch fluorescence ratio was 0.995.

As to TGCCACCGGT, the switch fluorescence ratio came to 0.954.

As for AGGACAGACT, the switch fluorescence ratio was found to be 0.945.

As for TTAAGGCGTA, the switch fluorescence ratio stood at 1. In the case of GCATGTGTAC, the switch fluorescence ratio came to 1.12. With TCGACGAGCT, the switch fluorescence ratio is 1.07. For the sequence GGTCTTGTAA, the switch fluorescence ratio stood at 0.967. Under ATTGCACGAC stands 1.18. Consider CACCGGACGG, for which the switch fluorescence ratio was 1.05. AGTAGTGGCC: the switch fluorescence ratio amounted to 1.07. Under ACTTTCTTC stands 0.993. For GTCTAATCCA the value was 1.02. Under ATATTACTGG stands 1.07; under AGAGTTGTTC, 1.02; under CCCTCGGAGT, 1. For CTAACCAACC, the switch fluorescence ratio came to 1.18. As for CTACGACACA, the switch fluorescence ratio is 1.49. For AAACCTTTTG the value was 1.17; for AGTTGCTGGG, 0.977; for CGGGGACTCT, 1.02. For AACCAATGGA, the switch fluorescence ratio was found to be 0.979. Under GTCACGATCT stands 0.947; under GCTACAACGC, 1.12; under TATAAGTCAA, 1.07.

Turning to CGAAATCTGG, the switch fluorescence ratio was 1.03. Take CCCGGTCAGT: the switch fluorescence ratio was 1.03. Under AAGATTGAGA stands 0.976; under AGTCCACGA, 1.08. For the sequence ATGCCGGTCA, the switch fluorescence ratio worked out at 0.961. Under GACGGTGCTG stands 1.07. Consider GGAAAAAGAC, for which the switch fluorescence ratio was determined as 1.04.

On to TAACCATAAT, for which the switch fluorescence ratio came to 0.979.

Take CCTCAGTTGG: the switch fluorescence ratio is 1.23. GGACTCATTT: the switch fluorescence ratio amounted to 1. For AGACGGAGTC the value was 1.02.

In the case of GTTGCTTGCT, the switch fluorescence ratio stood at 0.998. For GAAAACTAGA the value was 0.911; for AGTCTGTTGG, 1.02.

With ATTCTTATAA, the switch fluorescence ratio was 1.02.

On to CCGAATGGAG, for which the switch fluorescence ratio is 0.994. For TTCCCCTTCA the value was 1.78. For TGTGCACGGA the value was 1.01; for TCTTTGCAAA, 1.19; for GATAACATT, 0.998. In the case of CAAAGGGTAT, the switch fluorescence ratio is 0.956. For ATACCTTCCG, the switch fluorescence ratio came to 2.84.

For GTGGCCGGCC, the switch fluorescence ratio is 0.968. For AGTTACATGA the value was 1.01.
